In all, about 94,000 compounds went through this assay and about 6,200 (6.6%) were called active. The shares of active, inactive and inconclusive entries below differ from those in the screen. Calls come from the whole dose curve; as a rule, active = well fitted inhibition curve with a large enough effect; inconclusive = small, poorly fitted or top-dose-only effect; inactive = flat fitted curve, though single readings scatter. Potencies of inconclusive entries are doubtful fits and often do not repeat.
Test: Cytotoxic Profiling in HEK 293 Cell Line of Diverse Libraries Using Quantitative High-Throughput Screening; note: nearly all actives have a fitted effect of over 60% in size
Conditions: HEK 293 viability, ATP luminescence (CellTiter-Glo), 48-72 h; activity change, negative = cytotoxicity: at 115 µM (top of the series) unless noted; series mostly up to 115 µM
How it was run: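 HEK 293 seeded at 250 cells/well receive compound via pintool. After 48 or 72 hr at 37 degree Celsius, 5% CO2 and 95% humidity, CellTiter-Glo is dispensed and luminescence read following 10 min at room temperature.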
% is set by controls: 0 for no effect and ±100 for the full control effect; potency is the fitted concentration of half-maximal effect; tags give direction and shape of the fitted curve.

Structure (SMILES) | activity change, negative = cytotoxicity | Potency | outcome
CN1CCC(NC(=O)c2n[nH]c3c2CN(C(=O)c2ccccc2)CC3)CC1 | inactive: -0.625% | – | –
CN1C(=O)c2ccc(NC(=O)C[C@H]3NC(=O)c4ccccc4NC3=O)cc2C1=O | inactive: -4.57% | – | –
O=C(c1ccccc1F)N1CCC2(CC1)C(=O)NCN2Cc1ccc(Cl)cc1 | – | inconclusive: 89.1 µM [inhibitor, single point] | –
COc1cc(Cl)c(C)cc1NC(=O)Cn1ccn2nc(-c3ccccc3)c(CO)c2c1=O | – | inconclusive: 79.4 µM [inhibitor, single point] | –
O=C(NCc1ccccc1)c1nc2c(o1)CCN(Cc1ccc(F)c(Cl)c1)CC2 | – | inconclusive: 50.1 µM [inhibitor, full curve] | –
CC1Oc2ccc(NC(=O)C3CC3)cc2CN(CCc2ccc(F)cc2)C1=O (centres undefined) | – | inconclusive: 89.1 µM [inhibitor, partial curve, poor fit] | –
COc1cccc([S+](=O)([O-])N2CCc3nc(C(C)C)nc(-c4ccc(Cl)cc4)c3CC2)c1 | inactive: -15.4% | – | –
CCOC(=O)C1c2c(OC)ccc3c2C(=CC(C)(C)CO3)CN1C1COC1 (centres undefined) | – | inconclusive: 20 µM [inhibitor, full curve, poor fit] | –
O=C1COc2ccc(-c3ccsc3)nc2CN1Cc1ccccc1F | – | active: 100 µM | –
CS(=O)(=O)c1ccc(CN2C[C@@H](F)[C@@H](OCc3nc4ccc(F)cc4[nH]3)C2)cc1 | inactive: -24.4% [at 172 µM] | – | –
Cc1cn2nc(C(=O)N3CCC(C(=O)NCc4ccccn4)CC3)cc2c(=O)[nH]1 | inactive: -3.71% | – | –
Cc1ccc(S(=O)(=O)Cc2noc([C@@H]3C[C@@H](O)CN3CC3CCCCC3)n2)cc1 | – | inconclusive: 100 µM [inhibitor, partial curve] | –
CCNC(=O)OC1CCN(C(=O)NC2CCCC2)CC(=O)N(C)c2ccccc21 (centres undefined) | – | – | inactive
C[S+](=O)([O-])N1Cc2ccccc2CC2(CCCN(CC3CCCC3)C2)C1 (centres undefined) | inactive: -7.14% | – | –
CNC(=O)CCn1ncc2cc(OCc3ccccc3-c3c(Cl)cccc3OC)ccc21 | – | inconclusive: 44.7 µM [inhibitor, partial curve] | –
O=C1OC[C@@H]2CCN(Cc3ccc(F)c(F)c3)Cc3ccc(F)cc3N12 | – | inconclusive: 112 µM [inhibitor, partial curve, poor fit] | –
COc1cccc(NC(=O)N2CCC(c3cc(-c4cccc(C)c4)n[nH]3)CC2)c1 | – | inconclusive: 50.1 µM [inhibitor, partial curve, poor fit] | –
O=C(C[C@@H]1CCNC[C@@H]1Cc1cc(CC2CCCCC2)on1)N1CCOCC1 | – | inconclusive: 100 µM [inhibitor, partial curve, poor fit] | –
C#CCNC[C@@H]1C=C(C)[C@H](Cc2nnc(-c3ccccc3F)o2)C[C@H]1C(C)C | – | active: 70.8 µM | –
CCc1ocnc1C(=O)N1CCC(C2CCN(Cc3cccc(F)c3F)CC2)C1 (centres undefined) | – | inconclusive: 28.2 µM [inhibitor, full curve, poor fit] | –
O=C(Cc1ccccc1)N1CCCN(c2cc(-c3ccc(Cl)cc3)[nH]n2)CC1 | – | active: 39.8 µM | –
CC(C(=O)N1CCOc2ccc(CCC(=O)NCC3CC3)cc2C1)c1ccccc1 (centres undefined) | – | inconclusive: 89.1 µM [inhibitor, single point] | –

Structure (SMILES) | activity change, negative = cytotoxicity | Potency | outcome
CC(C)NC(=O)C1CCCN(Cc2cccc(-c3ccsc3)c2)C1 (centres undefined) | – | active: 44.7 µM | –
O=C(NC1CCCC1)c1nc2cccnc2n(Cc2ccccc2)c1=O | – | inconclusive: 79.4 µM [inhibitor, partial curve] | –
CN(C)c1nccnc1OC1CCN(C(=O)NCCc2ccccc2)C1 (centres undefined) | – | inconclusive: 70.8 µM [inhibitor, partial curve, poor fit] | –
Cc1ccc(-c2cccc(CN)c2)cc1Cl | – | inconclusive: 39.8 µM [inhibitor, full curve, poor fit] | –
O=C(C1CCCC1)N1CC2(CCN(CC3CCCCC3)C2)Cc2ccccc21 (centres undefined) | – | inconclusive: 50.1 µM [inhibitor, partial curve, poor fit] | –
CC(C)CCN1CCn2c(nn(-c3ccc(C(F)(F)F)cc3)c2=O)C1 | – | inconclusive: 79.4 µM [inhibitor, partial curve, poor fit] | –
Cc1nn2c(c1-c1ccccc1-c1ccccc1)N(C(=O)Cc1ccccn1)CCC2 | – | inconclusive: 100 µM [inhibitor, partial curve, poor fit] | –
O=C(NCc1cccs1)c1cn2cc(-c3cccc(C(F)(F)F)c3)sc2n1 | – | inconclusive: 35.5 µM [inhibitor, partial curve, poor fit] | –
COc1ccc(OCC2(C)COc3ccc(C(=O)NC4CCOCC4)cc3N2)cc1 (centres undefined) | – | inconclusive: 56.2 µM [inhibitor, partial curve, poor fit] | –
CCCc1cc(C(=O)N[C@H]2COC[C@H]2Cc2cc(C)no2)cs1 | inactive: -0.23% | – | –
c1ccc(NCC2CN(Cc3ccccn3)CC23CN(c2ccccc2)C3)cc1 (centres undefined) | – | active: 79.4 µM | –
CC(C)N1CC(C(=O)NCc2ccc(F)c(F)c2)NC1=O (centres undefined) | inactive: -7.96% [at 172 µM] | – | –
Cc1cccc(-c2nc3ccc(C(=O)NCc4ccccn4)cc3o2)n1 | – | inconclusive: 126 µM [inhibitor, single point] | –
C[S+](=O)([O-])NCc1nnc2n1C(C(=O)Nc1ccc(F)cc1)CC2 (centres undefined) | inactive: 4.72% | – | –
COc1ccc(NC(=O)C2CCN(C(=O)c3nnn4c3COC(c3ccc(C)cc3)C4)CC2)cc1 (centres undefined) | inactive: 6.03% | – | –
CC1(CCCCN2CCOCC2)COc2ccc(C(=O)NCc3cccc(F)c3)cc2N1 (centres undefined) | – | inconclusive: 89.1 µM [inhibitor, partial curve, poor fit] | –
Cc1ccccc1C(=O)N1CCN(C(=O)c2nc3cccnc3n(CCc3ccccc3)c2=O)CC1 | – | inconclusive: 79.4 µM [inhibitor, partial curve, poor fit] | –
COCC1CN(C2CCC2)CC12CCN(C(=O)c1ccco1)CC2 (centres undefined) | – | inconclusive: 56.2 µM [inhibitor, partial curve, poor fit] | –
O=C(Cn1ccn2nc(-c3ccccc3)c(CO)c2c1=O)Nc1cccc(F)c1 | – | inconclusive: 100 µM [inhibitor, single point] | –
CCCCNC(=O)N1CCC2(CC1)C(=O)N(CC(=O)NC(C)c1ccccc1)CN2c1ccccc1 (centres undefined) | – | inconclusive: 89.1 µM [inhibitor, partial curve, poor fit] | –
Cc1ccc(C(=O)N2CCC3(CC2)NC(=O)N(c2ccc(F)cc2)N3)c(C)c1 | – | inconclusive: 39.8 µM [inhibitor, full curve, poor fit] | –
COc1ccc(CN2Cc3[nH]cnc3C[C@H]2c2nc(Cc3ccccc3)no2)cc1 | – | inconclusive: 126 µM [inhibitor, single point] | –

Structure (SMILES) | activity change, negative = cytotoxicity | Potency | outcome
CC1Oc2ccc(NC(=O)c3ccccc3F)cc2CN(Cc2ccccc2F)C1=O (centres undefined) | – | inconclusive: 79.4 µM [inhibitor, partial curve, poor fit] | –
COc1ccccc1OCCNC(=O)c1ccc2c(c1)N(S(C)(=O)=O)CC2 | – | inconclusive: 20 µM [inhibitor, full curve] | –
Oc1ccccc1CN1CCC(O)(c2csc(CN3CCc4ccccc4C3)n2)CC1 | – | inconclusive: 56.2 µM [inhibitor, partial curve, poor fit] | –
CCCN1C(=O)Cc2ccccc2C1C(=O)NCc1cc(OC)ccc1OC (centres undefined) | – | inconclusive: 63.1 µM [inhibitor, partial curve, poor fit] | –
N#Cc1ccc(C(=O)N2CCC[C@H]2c2nc(-c3ccccc3)no2)cc1 | – | inconclusive: 79.4 µM [inhibitor, single point] | –
CCCN1CCC(N2CCC(C(=O)Nc3cccc(-c4cccc(F)c4)c3)CC2)CC1 | – | active: 22.4 µM | –
O=C(c1cccs1)N1CCC2(CC1)CN(Cc1ccccc1)CC2CO (centres undefined) | – | inconclusive: 39.8 µM [inhibitor, partial curve, poor fit] | –
Cc1ccc(C(=O)N2CC3(C2)NC(=O)c2ccccc2O3)cc1 | – | inconclusive: 126 µM [inhibitor, single point] | –
Cc1noc(-c2ccc3c(c2)OCO3)c1C(=O)NCc1cccc(Cl)c1 | – | inconclusive: 79.4 µM [inhibitor, partial curve, poor fit] | –
CCOc1ccc(C(=O)NC2CCN(c3cc(-c4ccc(OC)cc4)[nH]n3)CC2)cc1OCC | – | inconclusive: 22.4 µM [inhibitor, full curve, poor fit] | –
O=C(NC1CCCN(c2ccnc3ccnn23)C1)C1CC1 (centres undefined) | – | inconclusive: 112 µM [inhibitor, partial curve, poor fit] | –
Cc1ccc(CC(=O)N2CCC3(C2)C(=O)N(C)c2ccccc23)cc1 (centres undefined) | inactive: -12.1% | – | –
O=C1Nc2ccccc2C2(CCN(C(=O)c3ccccc3F)C2)O1 (centres undefined) | inactive: -10.7% [at 172 µM] | – | –
CC(=O)NC1(C)CCN(Cc2cccc(Nc3ccccc3)c2)C1 (centres undefined) | – | inconclusive: 100 µM [inhibitor, partial curve, poor fit] | –
COCCNC(=O)[C@H]1C[C@H](Oc2ccccc2)CN1C(C)=O | inactive: -1.44% | – | –
COc1ccc(-c2cn3cc(C(=O)NC4CCCCCC4)nc3s2)cc1 | inactive: -26.3% | – | –
COC(=O)c1cccc(-c2nc(C3CC(=O)N(c4ccc(F)cc4)C3)no2)c1 (centres undefined) | – | inconclusive: 89.1 µM [inhibitor, single point] | –
COc1cccc(CC(=O)N2CCCN(C)c3ccccc32)c1 | – | inconclusive: 89.1 µM [inhibitor, single point] | –
O=C(Nc1cccc(Cl)c1)c1ccc2oc(-c3ccccn3)nc2c1 | – | inconclusive: 63.1 µM [inhibitor, partial curve, poor fit] | –
CC1(c2ccccc2)N(Cc2ccccc2)C(=O)OC12CCN(C(=O)C1CCOCC1)CC2 (centres undefined) | inactive: -5.11% | – | –

Reference: PubChem BioAssay AID1345083 (National Center for Advancing Translational Sciences (NCATS), 2018)
